Experimental findings from ChEMBL document CHEMBL4888484, “Replenishing the malaria drug discovery pipeline: Screening and hit evaluation of the MMV Hit Generation Library 1 (HGL1) against asexual blood stage Plasmodium falciparum ,using a nano luciferase reporter read-out” (2022) are described below.

Molecules are shown by their SMILES. In all, about 150,000 compounds went through this assay and about 540 (0.36%) showed an effect of 50% or more. Some of the results follow. Where a SMILES comes first, the peptide text is derived from it. The star is where a group is joined. Boc = CC(C)(C)OC(=O)*; NHBn = c1ccc(CN*)cc1

This experiment deals with Plasmodium falciparum. Briefly: Primary screen in NF54 nanoGlo assay, in single point, at 2uM, 72h; a lower Z score goes with more inhibition. Format: functional, Erythrocyte. The following applies: timepoint 72 hour.
By % Inhibition is commonly meant the change of the read-out against control, counted positive when it falls. In the case of `Oc1ccc(N2CCN(Cc3nc4ccccc4o3)CC2)cc1`, the “% Inhibition” value was determined as 10% and the Z score is -1.18.
Taken in the same sequence, the figures for `Cc1ccc(-c2cc(C(=O)N(Cc3ccccc3)[C@H]3CCS(=O)(=O)C3)no2)cc1F` were -11% and 2.13.
With `CCn1cc(-c2ccc(Cl)cc2)cc1C(=O)N1CCCC1`, the “% Inhibition” value is reported as -2% and the Z score was 0.32.
In the case of `CC(C)(NC(=O)CCc1cn[nH]c1)c1ccccc1Br`, the “% Inhibition” value is recorded as 2% and the Z score is reported as -0.35.
Regarding `CCCc1cc(C(=O)NC2CCCCCC2)n[nH]1`, the “% Inhibition” value is -7% and the Z score was 1.05.
On to `Cc1ccc(C2C(C)CCCN2C(=O)NC2CC2)cc1` (stereo unspecified), for which the “% Inhibition” value was 0% and the Z score was 0.01.
Taken in the same sequence, the figures for `O=C(NC[C@@H]1CCCN2CCCC[C@H]12)c1cc(-c2ccsc2)n[nH]1` were -1% and 0.13.
Taken in the same sequence, the figures for `O=C(c1cnc(COc2ccc(F)cc2)nc1O)N1Cc2ccccc2C1` were -15% and 1.49.
Turning to `COC(C)[C@H](C)NC(=O)NC1CCCCC1n1cccn1` (stereo partly specified), the “% Inhibition” value was -4% and the Z score stood at 0.51.
Taken in the same sequence, the figures for `c1ccc(CC2CCN(c3[nH]cnc4ncnc3-4)CC2)cc1` were 39% and -4.37.
Taken in the same sequence, the figures for `O=C(NCC1(C2CCC2)CCC1)c1ncoc1C(F)(F)F` were -6% and 1.15.
The matching figures for `NC(=O)N1CCCN(C[C@H](O)c2ccc(C(F)(F)F)cc2)CC1`: -10% and 1.9.
For `Cc1cccc(CN2[C@H](CNC(=O)c3c(C)noc3C)CN(C)C(=O)[C@@H]2C)c1`, the “% Inhibition” value is given as -6% and the Z score turned out to be 0.8.
The matching figures for `O=C(NCC1(NC(=O)C2CCCC2)CCOCC1)C1CCCC1`: -12% and 1.05.
The matching figures for `O=C(C[C@@]1(O)C(=O)N(CN2CCOCC2)c2ccccc21)c1ccc2ccccc2c1`: -1% and 0.24.
As to `NC(=O)[C@@H]1CC(C(=O)Nc2cn[nH]c2)=NN1c1ccccc1`, the “% Inhibition” value was determined as 3% and the Z score is listed as -0.26.
Take `CC1CCC(NC(=O)[C@H]2CCCN(S(=O)(=O)N3CCCCCC3)C2)CC1` (stereo partly specified): the “% Inhibition” value is given as -17% and the Z score came to 2.09.
The matching figures for `CC(C)[C@@H]1C[C@H]1CNc1cccc(C(=O)O)n1`: 12% and -1.59.
The matching figures for `CCCCC(=O)Nc1ccc(NC(=O)[C@@H](C)CN(C)C)cc1Cl`: -12% and 1.57.
Taken in the same sequence, the figures for `Cc1nn(C)c(NC(=O)C(C)OC2CCCC(C)C2)c1C` (stereo unspecified) were -2% and 0.34.
In the case of `CCc1nc(C(C)C)ccc1C(=O)NC[C@H](C)c1nncn1C`, the “% Inhibition” value is recorded as -5% and the Z score came out at 0.66.
Taken in the same sequence, the figures for `O=C(c1ccc(O)cc1)N1C[C@H]2CC[C@@H](C1)N(Cc1ccccc1)C2` were -3% and 0.45.
Taken in the same sequence, the figures for `CCn1nc(C(C)(C)c2cc(N)n(CC)n2)cc1N` were 0% and 0.
The matching figures for `Cc1nc2ccccn2c1CC(=O)NCC[C@H]1CCCOC1`: -21% and 2.75.
Consider `COC[C@H](C)N1CCC(CCC(=O)Nc2ccc3c(c2)OCCO3)CC1`, for which the “% Inhibition” value is reported as -17% and the Z score is 2.71.
The matching figures for `COc1ccc(C(=O)N2c3cc(CNS(=O)(=O)c4cccs4)ccc3C[C@@H]2C)cc1`: -8% and 0.85.
Regarding `Cc1c(CCO)c(=O)n(-c2ccccc2)n1S(=O)(=O)c1c(Cl)cc(Cl)cc1Cl`, the “% Inhibition” value was 39% and the Z score is reported as -1.11.
The matching figures for `CN(C[C@]1(O)CCc2ccccc21)C(=O)NCCc1ccccn1`: -10% and 1.42.
The matching figures for `O=C(NCC#CCOc1cccc(C(F)(F)F)c1)c1ccno1`: -9% and 1.34.
In the case of `Cc1cc(O[C@H]2CCCN(S(=O)(=O)Cc3cccc(F)c3)C2)nc(C)n1`, the “% Inhibition” value came to 15% and the Z score was -2.12.
Taken in the same sequence, the figures for `O=C(Nc1cnccc1O)C1CC1c1ccccc1C(F)(F)F` (stereo unspecified) were 0% and 0.04.
Taken in the same sequence, the figures for `Cc1nc(-c2ccc(C(F)(F)F)cc2)nc(N2CCN(C(=O)c3cc(C(F)(F)F)cc(C(F)(F)F)c3)CC2)c1C(C)C` were 35% and -0.64.
Taken in the same sequence, the figures for `CN(C[C@H]1COCCO1)C(=O)Nc1ccc(-c2ccco2)cc1` were -20% and 1.74.
Consider `CC(=O)Oc1c(-c2ccc(NC(=O)CC(C)C)cc2)c(-c2ccc(N(C)C)cc2)nn1-c1ccc(F)cc1`, for which the “% Inhibition” value is 20% and the Z score is -2.46.
The matching figures for `Cc1nnc(CN(CCC(F)(F)F)C2CCC2)o1`: 5% and -0.76.
The matching figures for `CO[C@H]1CCCN(C(=O)c2cc(Cl)ccc2OC2CCN(C3CCCC3)CC2)C1`: -1% and 0.22.
Taken in the same sequence, the figures for `CN(Cc1cc(C2CC2)[nH]n1)Cc1ccccc1C(=O)O` were -19% and 2.47.
On to `Cc1cc(F)cc(-c2c(-c3ccccc3)ncn2Cc2nnc3ccccn23)c1`, for which the “% Inhibition” value amounted to 21% and the Z score is given as -2.71.
Turning to `O=C(NCc1cccnc1N1CCOCC1)Nc1ccccn1`, the “% Inhibition” value is recorded as -2% and the Z score is 0.37.
Taken in the same sequence, the figures for `COC[C@H]1CCCN1C(=O)c1cc2c(Cl)cccc2[nH]1` were -2% and 0.44.
In the case of `COCCNCCNc1ccc(F)cc1`, the “% Inhibition” value is recorded as -15% and the Z score was 2.39.
Taken in the same sequence, the figures for `CC(C)C1=NO[C@H](c2ncnn2CC(C)(C)O)C1` were 9% and -1.16.
The matching figures for `COCCN1CCN(c2nc(-c3ccc(F)c(Cl)c3)c3c(N)n(-c4ccccc4Cl)nc3n2)CC1`: -13% and 1.71.
The matching figures for `CC(Cn1cccn1)NC1CN(C(=O)OCc2ccccc2)C[C@H]1O` (stereo partly specified): 0% and 0.04.
As to `CN1CCN(CCC(C)(C)NCc2ccc(Cl)cc2F)CC1`, the “% Inhibition” value amounted to 1% and the Z score is given as -0.27.
Regarding `CC(C)(C)OC(=O)NC(Cc1ccccc1)C(=O)N1CCCC1C(=O)NCc1ccccc1` (stereo not drawn) (Boc-Phe-Pro-NHBn; configuration not given here), the “% Inhibition” value came out at 10% and the Z score was -0.93.
Taken in the same sequence, the figures for `Cc1oc2ccccc2c1CCNC(=O)N1CCC(C(F)(F)F)C(CN)C1` (stereo unspecified) were -3% and 0.31.
With `Cc1cc(F)ccc1CC(=O)N[C@H]1CC[C@@H]2CCC[C@@H]21`, the “% Inhibition” value is listed as -10% and the Z score is on record as 1.08.
As for `Cc1ccn(CCc2ccc3c(c2)CCO3)c(=O)c1C#N`, the “% Inhibition” value is -18% and the Z score turned out to be 1.54.
As for `CCCNc1ncc(CN2CCn3nc(C#N)cc3C2)cn1`, the “% Inhibition” value was -8% and the Z score came out at 1.39.
Take `NC(=O)[C@H]1CCN(C(=O)Nc2nc(-c3ccccc3)cs2)C1`: the “% Inhibition” value is -2% and the Z score stood at 0.37.
For `Cc1cc(OCc2cc(C(=O)N(Cc3nccn3C)C(C)C)no2)cc(C)c1Cl`, the “% Inhibition” value is -16% and the Z score is 2.71.
The matching figures for `Cc1ccsc1-c1nccn1-c1ccc2[nH]nnc2c1`: 1% and -0.13.
Regarding `CC[C@@H](C(=O)N(CC)Cc1nn(-c2ccccc2)c2c1CN(Cc1cc(F)ccc1F)CC2)c1ccccc1`, the “% Inhibition” value was -5% and the Z score came out at 0.74.
Taken in the same sequence, the figures for `Cc1cccc(CN2CCN(Cc3cccc4cccnc34)C[C@@H]2CCO)n1` were -17% and 1.55.
Taken in the same sequence, the figures for `CC(CC(=O)N1CC(C)OCC1c1ccccc1)NC(=O)C1CCCC1` (stereo unspecified) were -3% and 0.3.
The matching figures for `O=c1c2cccn2cnn1CCCOCc1ccccc1`: -18% and 2.33.
As for `C[C@H](NC(=O)NCC1CCCC1)C1CC1`, the “% Inhibition” value was 10% and the Z score is on record as -1.69.
The matching figures for `Cc1ccc(NC(=O)N2CCC[C@H](Cn3cnc4cccnc43)C2)c(C)c1`: -11% and 1.61.
Taken in the same sequence, the figures for `O=C(Nc1nc2cc3c(cc2s1)OCCO3)c1ccc(S(=O)(=O)N2CCCCCC2)cc1` were -13% and 2.43.
In the case of `Cc1ccc(CN2C[C@H](OC(C)C)[C@@H](O)C2)s1`, the “% Inhibition” value is listed as -9% and the Z score is 1.29.
Taken in the same sequence, the figures for `O=C(Cc1nnc(-c2cnccn2)o1)Nc1cc(F)ccc1F` were -11% and 1.08.
The matching figures for `CC1(C(=O)NC2CCCCCC2)Cn2c(nc3ccccc32)C(=O)N1CC1CCCO1` (stereo unspecified): -17% and 1.61.
Taken in the same sequence, the figures for `COC(=O)c1cccc2nc([C@H]3CCN(C4CCOCC4)C3)oc12` were 11% and -1.22.
`CC(C)CCN(CCC(=O)N1CCNCC1)C(=O)c1ccc(F)c(Cl)c1`: the “% Inhibition” value was -3% and the Z score was 0.36.
Taken in the same sequence, the figures for `CC(C)Oc1ccc2c(NC(=O)[C@@H]3CCCC(=O)N3)nn(CC(F)(F)F)c2c1` were -7% and 0.84.
As to `COc1ncc(CNc2c(F)cccc2NC(C)C)c(C)n1`, the “% Inhibition” value is reported as 2% and the Z score was -0.23.
Taken in the same sequence, the figures for `CN1CC[C@@]2(CCC1=O)CN(C(=O)CCc1ccsc1)CCN2C` were -18% and 2.27.
Taken in the same sequence, the figures for `CO[C@H]1[C@H](NC(=O)Cc2ccccc2)c2ccccc2C12CCNCC2` were -6% and 1.03.
Taken in the same sequence, the figures for `C[C@H](O)c1cccc(-c2ccccc2CN2CCOCC2)n1` were -7% and 1.3.
With `COc1ccccc1OC[C@@H](C)CNC(=O)N1CCC1`, the “% Inhibition” value was -1% and the Z score was 0.18.
In the case of `Cn1c(NC(=O)c2cccs2)c(-c2ccc(Cl)cc2)c(=O)c2ccccc21`, the “% Inhibition” value came out at 0% and the Z score is 0.04.
Taken in the same sequence, the figures for `O=C1CC2C(=O)CC1C1C(=O)N(c3ccc(Cl)c(Cl)c3)C(=O)C21` (stereo unspecified) were -3% and 0.32.
Taken in the same sequence, the figures for `O=C(NC[C@H](O)COc1cccc(Cl)c1Cl)c1c(F)c(F)cc(F)c1F` were 6% and -0.88.
The matching figures for `CN(Cc1cccs1)c1nn2cc(C(C)(C)C)nc2s1`: -3% and 0.31.
Consider `COc1ccccc1OCc1ccc(C(=O)NC2CCCCC2)cc1`, for which the “% Inhibition” value is recorded as -35% and the Z score is listed as 4.08.
On to `CN1C[C@]2(CCN(Cc3nc(-c4ccc(Cl)cc4)no3)C2)OC1=O`, for which the “% Inhibition” value is -1% and the Z score worked out at 0.1.
The matching figures for `CC(C)(C)OC(=O)N[C@H](CO)Cc1c[nH]cn1`: -2% and 0.42.
The matching figures for `Nc1cccc(COCC(F)(F)C(F)F)c1`: 1% and -0.09.
With `Cc1c(C(=O)NC2CCCC2)sc2ncnc(N(C)CCc3ccccn3)c12`, the “% Inhibition” value is -6% and the Z score stood at 1.12.
Taken in the same sequence, the figures for `O=C(Cn1cnccc1=O)NCC1(N2CCOCC2)CCCCC1` were 10% and -1.39.
Taken in the same sequence, the figures for `Cc1csc(C(C)(C)NC(=O)NCCC2=CCCC2)n1` were 36% and -4.89.
Taken in the same sequence, the figures for `CC(C)CC(=O)N1CC[C@H](CC(=O)N(C)Cc2ccccc2)C1` were -2% and 0.3.
